# “And” between values parts separate entries of the source, which are not always exact repeats. Equal entries are not always repeated. Among all 110,000 compounds or so, about 230 (0.21%) showed an effect of 50% or more. Some of the results follow.
# Target: DPAP1 (Plasmodium falciparum, UniProt Q8IIJ9)
# Test: primary screen, percent inhibition; read by cleavage of a fluorogenic dipeptide substrate; higher = more effect of the substance
# Design: species or system P. falciparum D10 trophozoite lysates; single well
# 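Also: 30 min substrate incubation versus DMSO and 10 µM JCP410 controls.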
# Sequence of DPAP1 (Q8IIJ9 whole entry, looked up): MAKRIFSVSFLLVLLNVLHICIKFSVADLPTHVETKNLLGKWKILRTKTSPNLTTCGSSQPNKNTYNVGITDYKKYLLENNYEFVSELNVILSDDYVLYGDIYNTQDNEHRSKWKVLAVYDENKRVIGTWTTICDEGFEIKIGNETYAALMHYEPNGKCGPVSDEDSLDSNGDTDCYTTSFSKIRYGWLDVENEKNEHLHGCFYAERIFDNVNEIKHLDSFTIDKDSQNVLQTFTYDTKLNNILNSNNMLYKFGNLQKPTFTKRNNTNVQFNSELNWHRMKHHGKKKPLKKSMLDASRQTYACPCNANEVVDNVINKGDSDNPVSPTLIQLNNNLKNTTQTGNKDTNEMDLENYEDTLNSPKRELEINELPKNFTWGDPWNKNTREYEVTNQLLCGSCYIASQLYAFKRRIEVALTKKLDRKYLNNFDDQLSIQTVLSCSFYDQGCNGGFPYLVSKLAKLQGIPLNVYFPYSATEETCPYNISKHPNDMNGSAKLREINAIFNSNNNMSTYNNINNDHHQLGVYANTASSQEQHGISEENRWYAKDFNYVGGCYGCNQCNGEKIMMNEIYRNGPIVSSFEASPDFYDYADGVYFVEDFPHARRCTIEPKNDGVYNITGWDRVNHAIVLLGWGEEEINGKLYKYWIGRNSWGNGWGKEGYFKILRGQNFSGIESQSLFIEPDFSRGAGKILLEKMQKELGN
row,SMILES,% Inhibition @ 10 uM
1,CC1CC(C)CN(S(=O)(=O)c2ccc(Cl)cc2)C1 (centres unmarked),-4.4%
2,COc1ccc(C2NCCc3c2[nH]c2ccccc32)cc1OC (centres unmarked),0.815%
3,CC1=CC(C)C2(COC(=O)Nc3ccccc3)COC(C)C1C2C (centres unmarked),-0.582%
4,Cc1ccccc1C(=O)Nc1ccc(-c2nc3cc(Cl)ccc3o2)cc1,-2.51%
5,CC(=O)c1cccc(NC(=O)COc2ccccc2)c1,-1.29%
6,CCn1c(C(=O)N2CCC(C(=O)NCCOC)CC2)cc2sccc21,4.95%
7,CCCNC(=O)CSC1=N/C(=C\c2ccc(Cl)cc2Cl)C(=O)N1C,2.38%
8,Cc1ccc(OCC(=O)Nc2ccc(S(=O)(=O)Nc3nccs3)cc2)c(Br)c1,-4.67%
9,O=C1N2CN(C3CCCCC3)CN3C(=O)N4CN(C5CCCCC5)CN1C4C23 (centres unmarked),0.565%
10,O=C(CC1Nc2ccccc2NC1=O)Nc1ccccc1 (centres unmarked),32.7%
11,COC(=O)C1=C(C)NC(=O)/C1=C\c1ccc(Cl)cc1Cl,-1.76%
12,O=C(CS(=O)(=O)c1ccc2ccccc2c1)Nc1ccccc1Cl,0.726%
13,CC(C)C[C@H](NC(=O)c1cccc(-c2ccc3c(c2)OCO3)c1)C(=O)NCC#N,-6.98%
14,Cc1cc(C)n(CCCCCC(=O)O)c(=O)n1,-1.29%
15,O=C(NCCc1ccncc1)NC1CCCCC1,2.17%
16,Nc1cnc2ccc3nn(-c4ccccc4)nc3c2n1,-8.3%
17,CCOc1ccccc1N(CC(=O)N1CCN(C)CC1)S(=O)(=O)c1ccccc1,0.851% and -2.29%
18,CCc1ccc(-c2cn3c(n2)sc2cc(C(=O)NCCN4CCCC4)ccc23)cc1,5.11%
19,CC1=C(C(=O)Nc2ccc(Cl)cc2)C(c2ccc(N(C)C)cc2)NC(S)=N1 (centres unmarked),-0.436%
20,Fc1ccccc1CSc1nncn2c1cc1sccc12,-5.3%
21,COc1cc2c(cc1OC)C(C(=O)N1CCCC1)C(c1ccccc1F)N(C)C2=O (centres unmarked),-4.65%
22,CCOC(=O)c1cc2c(=O)n3ccccc3nc2n(C(C)C)/c1=N\C(=O)C(C)(C)C,3.61%

row,SMILES,% Inhibition @ 10 uM
1,CCC(=O)N1N=C(c2cccs2)CC1c1ccc(OC)cc1 (centres unmarked),2.26%
2,COc1ccc(CNc2ccc(SC)cc2)cc1,1.38%
3,Cc1ccc(N2CC(C(=O)NC3CC3)CC2=O)cc1 (centres unmarked),-7.91%
4,CCOc1ccc(C(=O)Nc2ccc(NC(C)=O)cc2)cc1,5.07%
5,c1cncc(CNCc2ccco2)c1,-1.08%
6,Cc1ccc(-c2nc(-c3cccnc3)no2)c(C)c1,-3.53%
7,Cn1c(SCc2nc(-c3ccccc3)no2)nnc1-c1cccs1,-2.91%
8,CC1(C)CC(=O)C2=C(C1)OC1=C(C(=O)CC(C)(C)C1)C2c1c(O)ccc2ccccc12,1.13%
9,O=C(Nc1ccc(F)cc1)c1ccccc1NC(=O)C1CC=CCC1C(=O)O (centres unmarked),-2.76%
10,CC1CCCCN1C(=O)CSc1nc2ccsc2c(=O)n1Cc1ccccn1 (centres unmarked),10.4%
11,O=C(Nc1ccccc1)c1ccc(N2C(=O)C3C4C=CC(C4)C3C2=O)cc1 (centres unmarked),-3.85%
12,CC(C)C[C@H](NC(=O)c1ccc(Cc2ccccc2)cc1)C(=O)NCC#N,1.71%
13,CCC(C)NC(=O)C1CCCN(c2nnc(N3CCCC3=O)s2)C1 (centres unmarked),-4.68%
14,COc1ccc2c(Sc3ccccc3)c(C(=O)N3CCN(c4ccccn4)CC3)[nH]c2c1,-7.17%
15,CCCCNC(=O)C1CCC(C/N=c2/c(N3CCC(C)CC3)c(O)c2=O)CC1 (centres unmarked),-3.96%
16,CN(C)CCOC(=O)c1ccc2[nH]c3c(c2c1)CSCC3,9.31%
17,CC(C)n1c(NC2CCCCC2)nc2c1c(=O)[nH]c(=O)n2C,-1.11%
18,N=C1S/C(=C\c2ccc(-c3cccc(C(F)(F)F)c3)o2)C(=O)N1c1nonc1N,0.727%
19,COc1ccc2[nH]c3c(=O)n(CCCCC(=O)NCCCN4CCCC4=O)c(=S)[nH]c3c2c1,8.62%
20,COc1ccccc1C(=O)Nc1cc2c(cc1C(C)=O)OCO2,3.67%
21,Sc1nnc(-c2ccccc2Cl)n1C1CCCCC1,-1.32%
22,O=C(O)c1ccc(C(=O)c2ccc([N+](=O)[O-])cc2)cc1,-3.65%

row,SMILES,% Inhibition @ 10 uM
1,O=C1NC2(CCCC2)Cc2ccccc21,1.54%
2,CCO/C(O)=C1/C(C)=Nc2ncnn2C1c1cc(Br)ccc1F (centres unmarked),-3.37%
3,CC(C)(C)c1ccc(C(=O)N/C(=C\c2ccco2)C(=O)NCCC(=O)O)cc1,-3.75%
4,CC(=O)N1CCC2(CC1)OC(=O)C(C)=C2C(=O)NC(C)c1ccccc1 (centres unmarked),-7.03%
5,CCC1CCCCN1CCCNC(=O)C1CCCN(S(=O)(=O)N2CCOCC2)C1 (centres unmarked),0.0525%
6,COc1ccc(C)cc1NC(=O)c1ccc(Cn2nc(C)cc2C)o1,-0.891%
7,CCc1nnc(NC(=O)CSc2n[nH]c(CC(C)C)n2)s1,-3.21%
8,Nc1c(C(=O)Nc2ccccc2)sc2sc(C(=O)Nc3ccccc3)c(N)c12,6.31%
9,CCCCCCNS(=O)(=O)c1ccccc1[N+](=O)[O-],4.17%
10,CS(=O)(=O)N1CCC(C(=O)NCc2cccs2)CC1,-1.34%
11,O=C(Nc1ccc(F)cc1F)c1ccc(Cl)cc1Cl,3.53%
12,O=[N+]([O-])c1ccc(-c2nc(-c3ccccc3)no2)cc1,-10.2%
13,Cc1cc(=O)oc2c(CN3CCOCC3)c(O)c(Cl)cc12,2.26%
14,CCOc1cc(C2C(C#N)=C(N)Oc3c2oc(CO)cc3=O)ccc1OCCN1CCOCC1 (centres unmarked),4.09%
15,Cc1cc2c3nonc3ccc2n1-c1ccccc1,-6.36%
16,Cn1c(=O)c2c(nc(CN3CCOCC3)n2Cc2ccccc2)n(C)c1=O,-2.29%
17,CCCc1cc(O)c2c(C)cc(=O)oc2c1,6.33%
18,O=C(CCNc1c(N2CCCC2)c(=O)c1=O)NCc1ccccc1,1.68%
19,CCCCSc1nc2c(c(=O)[nH]c(=O)n2C)n1C(C)C,-6.36%
20,CCN(CC)CCCNc1nc(C)cc(COC)c1C#N,-8.98%
21,O=C1CCSc2c1cccc2C(=O)NCc1cccc(Cl)c1,-3.49%
